# Measurements published in the supplement of paper PMC8728848.
# This is one part of the list.
# Key:
# Experiment in all cases: glycan array binding signal (z-score within array); higher = stronger binding
# Conditions in all cases: glycan notation: IUPAC condensed, linker removed
# [1] = biological target: Gal(b1-4)GlcNAc(b1-3)Gal(b1-4)GlcNAc(b1-3)Gal(b1-4)GlcNAc
# Procedure, shortened: (§1)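 Glycan array binding is given as a within-array Z-score, which can be read as non-binding when negative. The arrays, 3228 of them, came from the Consortium for Functional Glycomics database and were retained only where the protein sequence was available. Z-scores were averaged across arrays of the same protein sequence at different concentrations or buffers and across linkers.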
# [2] = biological target: Gal(b1-4)GlcNAc(b1-3)Gal(b1-4)GlcNAc(b1-3)Gal(b1-4)GlcNAc(b1-2)Man(a1-3)[Gal(b1-4)GlcNAc(b1-3)Gal(b1-4)GlcNAc(b1-3)Gal(b1-4)GlcNAc(b1-2)Man(a1-6)]Man(b1-4)GlcNAc(b1-4)GlcNAc
# Procedure, shortened: as §1
# [3] = biological target: Gal(b1-4)GlcNAc(b1-3)Gal(b1-4)GlcNAc(b1-3)Gal(b1-4)GlcNAc(b1-2)Man(a1-3)[Gal(b1-4)GlcNAc(b1-3)Gal(b1-4)GlcNAc(b1-3)Gal(b1-4)GlcNAc(b1-2)Man(a1-6)]Man(b1-4)GlcNAc(b1-4)[Fuc(a1-6)]GlcNAc
# Procedure, shortened: as §1
# [4] = biological target: Gal(b1-4)GlcNAc(b1-3)Gal(b1-4)GlcNAc(b1-3)Gal(b1-4)GlcNAc(b1-2)[Gal(b1-4)GlcNAc(b1-3)Gal(b1-4)GlcNAc(b1-3)Gal(b1-4)GlcNAc(b1-6)]Man(a1-6)[Gal(b1-4)GlcNAc(b1-3)Gal(b1-4)GlcNAc(b1-3)Gal(b1-4)GlcNAc(b1-2)Man(a1-3)]Man(b1-4)GlcNAc(b1-4)[Fuc(a1-6)]GlcNAc
# Procedure, shortened: as §1
# [5] = biological target: Gal(b1-4)GlcNAc(b1-3)Gal(b1-4)GlcNAc(b1-3)Gal(b1-4)GlcNAc(b1-3)Gal(b1-4)GlcNAc(b1-2)Man(a1-3)[Gal(b1-4)GlcNAc(b1-3)Gal(b1-4)GlcNAc(b1-3)Gal(b1-4)GlcNAc(b1-3)Gal(b1-4)GlcNAc(b1-2)Man(a1-6)]Man(b1-4)GlcNAc(b1-4)GlcNAc
# Procedure, shortened: as §1
# [6] = biological target: Gal(b1-4)GlcNAc(b1-3)Gal(b1-4)GlcNAc(b1-3)Gal(b1-4)GlcNAc(b1-3)Gal(b1-4)GlcNAc(b1-2)Man(a1-3)[Gal(b1-4)GlcNAc(b1-3)Gal(b1-4)GlcNAc(b1-3)Gal(b1-4)GlcNAc(b1-3)Gal(b1-4)GlcNAc(b1-2)Man(a1-6)]Man(b1-4)GlcNAc(b1-4)[Fuc(a1-6)]GlcNAc
# Procedure, shortened: as §1
# [7] = biological target: Gal(b1-4)GlcNAc(b1-3)Gal(b1-4)GlcNAc(b1-3)Gal(b1-4)GlcNAc(b1-3)Gal(b1-4)GlcNAc(b1-2)[Gal(b1-4)GlcNAc(b1-3)Gal(b1-4)GlcNAc(b1-3)Gal(b1-4)GlcNAc(b1-3)Gal(b1-4)GlcNAc(b1-6)]Man(a1-6)[Gal(b1-4)GlcNAc(b1-3)Gal(b1-4)GlcNAc(b1-3)Gal(b1-4)GlcNAc(b1-3)Gal(b1-4)GlcNAc(b1-2)Man(a1-3)]Man(b1-4)GlcNAc(b1-4)[Fuc(a1-6)]GlcNAc
# Procedure, shortened: as §1
# [8] = biological target: Gal(b1-4)GlcNAc(b1-3)Gal(b1-4)GlcNAc(b1-3)Gal(b1-4)GlcNAc(b1-3)Gal(b1-4)GlcNAc(b1-3)Gal(b1-4)GlcNAc(b1-2)Man(a1-3)[Gal(b1-4)GlcNAc(b1-3)Gal(b1-4)GlcNAc(b1-3)Gal(b1-4)GlcNAc(b1-3)Gal(b1-4)GlcNAc(b1-3)Gal(b1-4)GlcNAc(b1-2)Man(a1-6)]Man(b1-4)GlcNAc(b1-4)GlcNAc
# Procedure, shortened: as §1
# [9] = biological target: Gal(b1-4)GlcNAc(b1-3)Gal(b1-4)GlcNAc(b1-3)Gal(b1-4)GlcNAc(b1-3)Gal(b1-4)GlcNAc(b1-3)Gal(b1-4)GlcNAc(b1-2)Man(a1-3)[Gal(b1-4)GlcNAc(b1-3)Gal(b1-4)GlcNAc(b1-3)Gal(b1-4)GlcNAc(b1-3)Gal(b1-4)GlcNAc(b1-3)Gal(b1-4)GlcNAc(b1-2)Man(a1-6)]Man(b1-4)GlcNAc(b1-4)[Fuc(a1-6)]GlcNAc
# Procedure, shortened: as §1
# [10] = biological target: Gal(b1-4)GlcNAc(b1-3)Gal(b1-4)GlcNAc(b1-3)Gal(b1-4)GlcNAc(b1-3)Gal(b1-4)GlcNAc(b1-3)Gal(b1-4)GlcNAc(b1-2)[Gal(b1-4)GlcNAc(b1-3)Gal(b1-4)GlcNAc(b1-3)Gal(b1-4)GlcNAc(b1-3)Gal(b1-4)GlcNAc(b1-3)Gal(b1-4)GlcNAc(b1-6)]Man(a1-6)[Gal(b1-4)GlcNAc(b1-3)Gal(b1-4)GlcNAc(b1-3)Gal(b1-4)GlcNAc(b1-3)Gal(b1-4)GlcNAc(b1-3)Gal(b1-4)GlcNAc(b1-2)Man(a1-3)]Man(b1-4)GlcNAc(b1-4)[Fuc(a1-6)]GlcNAc
# Procedure, shortened: as §1
# [11] = biological target: Gal(b1-4)GlcNAc(b1-3)Gal(b1-4)GlcNAc(b1-3)Gal(b1-4)GlcNAc(b1-3)Gal(b1-4)GlcNAc(b1-3)Gal(b1-4)GlcNAc(b1-3)Gal(b1-4)GlcNAc(b1-2)Man(a1-3)[Gal(b1-4)GlcNAc(b1-3)Gal(b1-4)GlcNAc(b1-3)Gal(b1-4)GlcNAc(b1-3)Gal(b1-4)GlcNAc(b1-3)Gal(b1-4)GlcNAc(b1-3)Gal(b1-4)GlcNAc(b1-2)Man(a1-6)]Man(b1-4)GlcNAc(b1-4)GlcNAc
# Procedure, shortened: as §1
# [12] = biological target: Gal(b1-4)GlcNAc(b1-3)Gal(b1-4)GlcNAc(b1-3)GalNAc
# Procedure, shortened: as §1
# [13] = biological target: Gal(b1-4)GlcNAc(b1-3)Gal(b1-4)GlcNAc(b1-3)[Gal(b1-4)GlcNAc(b1-3)Gal(b1-4)GlcNAc(b1-6)]GalNAc
# Procedure, shortened: as §1
# [14] = biological target: Gal(b1-4)GlcNAc(b1-3)Gal(b1-4)GlcNAc(b1-6)[Gal(b1-3)]GalNAc
# Procedure, shortened: as §1
# [15] = biological target: Gal(b1-4)GlcNAc(b1-3)Gal(b1-4)[Fuc(a1-3)GlcNAc(b1-6)]Gal(b1-4)Glc
# Procedure, shortened: as §1
# [16] = biological target: Gal(b1-4)GlcNAc(b1-3)Gal(b1-4)[Fuc(a1-3)]GlcNAc(b1-3)Gal(b1-4)[Fuc(a1-3)]GlcNAc
# Procedure, shortened: as §1
# [17] = biological target: Gal(b1-4)GlcNAc(b1-3)GalNAc
# Procedure, shortened: as §1
# [18] = biological target: Gal(b1-4)GlcNAc(b1-3)[Fuc(a1-3)GlcNAc(b1-6)]Gal(b1-4)Glc
# Procedure, shortened: as §1
# [19] = biological target: Gal(b1-4)GlcNAc(b1-3)[Gal(b1-4)GlcNAc(b1-6)]Gal(b1-4)GlcNAc
# Procedure, shortened: as §1
# [20] = biological target: Gal(b1-4)GlcNAc(b1-3)[Gal(b1-4)GlcNAc(b1-6)]GalNAc
# Procedure, shortened: as §1
# [21] = biological target: Gal(b1-4)GlcNAc(b1-3)[GlcNAc(b1-6)]Gal(b1-4)GlcNAc
# Procedure, shortened: as §1
# [22] = biological target: Gal(b1-4)GlcNAc(b1-6)Gal(b1-4)GlcNAc
# Procedure, shortened: as §1
# [23] = biological target: Gal(b1-4)GlcNAc(b1-6)GalNAc
# Procedure, shortened: as §1
# [24] = biological target: Gal(b1-4)GlcNAc(b1-6)[Gal(b1-3)]GalNAc
# Procedure, shortened: as §1
# [25] = biological target: Gal(b1-4)GlcNAc(b1-6)[Gal(b1-4)GlcNAc(b1-3)]GalNAc
# Procedure, shortened: as §1
# Gal(b1-4)GlcNAc6P = biological target: Gal(b1-4)GlcNAc6P
# Procedure, shortened: as §1
# Gal(b1-6)Gal = biological target: Gal(b1-6)Gal
# Procedure, shortened: as §1
# Gal3S(b1-3)GalNAc = biological target: Gal3S(b1-3)GalNAc
# Procedure, shortened: as §1
# Gal3S(b1-3)GlcNAc = biological target: Gal3S(b1-3)GlcNAc
# Procedure, shortened: as §1
# [26] = biological target: Gal3S(b1-3)[Fuc(a1-4)]GlcNAc
# Procedure, shortened: as §1
# Gal3S(b1-4)Glc = biological target: Gal3S(b1-4)Glc
# Procedure, shortened: as §1
# Gal3S(b1-4)Glc6S = biological target: Gal3S(b1-4)Glc6S
# Procedure, shortened: as §1
# Gal3S(b1-4)GlcNAc = biological target: Gal3S(b1-4)GlcNAc
# Procedure, shortened: as §1
# Gal3S(b1-4)GlcNAc6S = biological target: Gal3S(b1-4)GlcNAc6S
# Procedure, shortened: as §1
# [27] = biological target: Gal3S(b1-4)[Fuc(a1-3)]Glc
# Procedure, shortened: as §1
# [28] = biological target: Gal3S(b1-4)[Fuc(a1-3)]Glc6S
# Procedure, shortened: as §1
# [29] = biological target: Gal3S(b1-4)[Fuc(a1-3)]GlcNAc
# Procedure, shortened: as §1
binder,measurement,setting,value
rAAL-2 (Agrocybe aegerita) (protein) MTSNVITQDLPIPVASRGFADIVGFGLDGVVIGRNAVNLQPFLAVKNFAQNAGGWLTTKHVRLIADTTGTGKGDIVGFGNAGVYVSVNNGKNTFADPPKMVIANFGYDAGGWRVEKHLRYLADIRKIGRADIIGFGEKGVLVSRNNGGLNFGPATLVLKDFGYDAGGWRLDRHLRFLADVTGNGHLDIVGFGDKHVFISRNNGDGTFAPAKSVIDNFCIDAGGWKIGDHPRFVADLTGDGTADIIGCGKAGCWVALNNGGGVFGQVKLVINDFGTDKGWQAAKHPRFIADLTGNGRGDVVGFGNAGVYVALNNGDGTFQSAKLVLKDFGVQQGWTVSKHRRFVVDLTGDGCADIIGFGEKETLVSYNDGKGNFGPVKALTNDFSFSGGKWAPETTVCWMANLDSSRH,glycan array binding signal (z-score),[1],-0.113
same,glycan array binding signal (z-score),[2],-0.084
same,glycan array binding signal (z-score),[3],-0.18
same,glycan array binding signal (z-score),[4],-0.234
same,glycan array binding signal (z-score),[5],-0.071
same,glycan array binding signal (z-score),[6],-0.088
same,glycan array binding signal (z-score),[7],-0.361
same,glycan array binding signal (z-score),[8],-0.319
same,glycan array binding signal (z-score),[9],-0.096
same,glycan array binding signal (z-score),[10],0.032
same,glycan array binding signal (z-score),[11],-0.303
same,glycan array binding signal (z-score),[12],-0.073
same,glycan array binding signal (z-score),[13],0.004
same,glycan array binding signal (z-score),[14],-0.017
same,glycan array binding signal (z-score),[15],-0.252
same,glycan array binding signal (z-score),[16],-0.168
same,glycan array binding signal (z-score),[17],-0.36
same,glycan array binding signal (z-score),[18],-0.377
same,glycan array binding signal (z-score),[19],-0.393
same,glycan array binding signal (z-score),[20],-0.248
same,glycan array binding signal (z-score),[21],0.113
same,glycan array binding signal (z-score),[22],-0.213
same,glycan array binding signal (z-score),[23],-0.309
same,glycan array binding signal (z-score),[24],-0.193
same,glycan array binding signal (z-score),[25],-0.412
same,glycan array binding signal (z-score),Gal(b1-4)GlcNAc6P,-0.067
same,glycan array binding signal (z-score),Gal(b1-6)Gal,-0.299
same,glycan array binding signal (z-score),Gal3S(b1-3)GalNAc,-0.158
same,glycan array binding signal (z-score),Gal3S(b1-3)GlcNAc,-0.288
same,glycan array binding signal (z-score),[26],-0.239
same,glycan array binding signal (z-score),Gal3S(b1-4)Glc,-0.14
same,glycan array binding signal (z-score),Gal3S(b1-4)Glc6S,-0.288
same,glycan array binding signal (z-score),Gal3S(b1-4)GlcNAc,-0.213
same,glycan array binding signal (z-score),Gal3S(b1-4)GlcNAc6S,-0.11
same,glycan array binding signal (z-score),[27],-0.264
same,glycan array binding signal (z-score),[28],-0.303
same,glycan array binding signal (z-score),[29],-0.286
